Test results from PubChem BioAssay AID1362 (SRMLSC, 2008).
The list shows a part of the results. Further columns of the screen follow, without active or inactive calls. Compounds called inactive in the main read-out are mostly missing here.

Experiment: growth inhibition of WT strain, primary screen, mitochondrial fusion inhibitor project, WT and mutant strains, chemical genetic (AID 1362); also: tested in S. cerevisiae
Settings: mitochondrial fusion phenotypic screen, at 10 µM

Compound	inhibition [%]
CC1CCCC(NC(=S)NC(=O)c2ccccc2Br)C1C (configuration not stated)	48.8
CCOc1ccccc1NC(=S)NCCc1ccccc1	71.1
CCCCOc1ccc(C2C3CN(C(=O)OCC)CC=C3C(C#N)=C(N)C2(C#N)C#N)cc1OC (configuration not stated)	20.2
O=C(c1ccc(C(=O)N2CCCc3ccccc32)s1)N1CCCc2ccccc21	90.8
CCC(C)n1c(=O)c(C(=O)Nc2ccccc2S(N)(=O)=O)c(O)c2ccccc21 (configuration not stated)	21
O=C(c1csc(Nc2ccccc2Cl)n1)N1CCCC1	-7.59
COc1ccccc1N1CCN(C(=O)c2ccc(CSc3ccccc3)cc2)CC1	-4.44
COc1cc(Cl)c(C)cc1NC(C)C(=O)Nc1cc(C(F)(F)F)ccc1N1CCOCC1 (configuration not stated)	32.2
CCC(=O)N1CCN(c2ccccc2NC(=O)COc2cc(C)ccc2C(C)C)CC1	14.2
O=C(CN1/C(=C(/O)c2ccccc2)C(=O)c2ccccc2S1(=O)=O)c1ccccc1	47.7
CCOC(=O)c1cnc2ccc(OCC)cc2c1N1CCN(c2ccccc2)CC1	39
Cc1cc(/C=N/n2cnnc2)c(C)n1-c1ccc(OCc2ccc(F)cc2)cc1	36.8
CCC(C)c1ccc(NC(=S)NC2CCN(Cc3ccccc3)CC2)cc1 (configuration not stated)	58.7
O=C(c1cccc(Cl)c1)N1CCCC(c2ccc(Cl)cc2)=N1	59.1
Cc1ccc(NC(=S)N/N=C/c2c(C)[nH]c3ccccc23)cc1	92.6
COc1ccc(NC(=S)N2CCN(C(c3ccccc3)c3ccccc3)CC2)c(OC)c1	27.5
COc1ccc(NC(=S)NC2CCCCCC2)c(OC)c1	36
N=C(N)SCc1cn(-c2ccccc2)nc1-c1ccc(Br)cc1	76.5
Cc1ccc(-n2cc(CNCCc3cscn3)c(-c3ccc(F)cc3)n2)cc1	15.9
COc1cc2c(cc1NC(=O)Nc1ccccc1)oc1ccccc12	61.6
Cc1ccc(C(C)C)c(Oc2nnnn2-c2ccccc2)c1	34.5
CCOC(=O)C1CCC(CN(Cc2ccccc2)S(=O)(=O)c2ccc([N+](=O)[O-])cc2)CC1 (configuration not stated)	63.4

Compound	inhibition [%]
CC1CCCC(NC(=S)NC(=O)c2cncc(Br)c2)C1C (configuration not stated)	54.6
O=C(Nc1nc(-c2cccs2)c(-c2cccs2)s1)C1CCCC1	28.2
CC(=O)Cc1nsc(NC(=O)c2ccc(-c3cc(Cl)ccc3Cl)o2)n1	-2.35
COc1cccc(Nc2nc(-c3sc(NC(=O)c4ccccc4)nc3C)cs2)c1	24.2
O=c1oc2cc(Oc3c([N+](=O)[O-])cc(C(F)(F)F)cc3[N+](=O)[O-])ccc2c2c1CCCC2	54
C=CCn1c(SCC(=O)Nc2cccc(C(=O)OC)c2)nnc1C(C)NC(=O)c1cccs1 (configuration not stated)	1.01
Cc1nn2c(N3CCN(c4ccccn4)CC3)cc(C(C)C)nc2c1-c1ccccc1	95
CCCCCN1C=CC(=C2C(=O)c3ccccc3C2=O)C=C1	54.7
N#CC(c1ccccc1)c1ccc2c(C(F)(F)F)cc(C(F)(F)F)nc2n1 (configuration not stated)	68.8
O=C(NCc1ccccn1)C(=O)Nc1nc(C23CC4CC(CC(C4)C2)C3)cs1	-13.2
Cc1ccc(Nc2ccc(C(=O)O)cc2N)cc1	18.1
CC(=O)Oc1c(C)cc(Cl)cc1C(=O)Nc1ccc([N+](=O)[O-])cc1Cl	84.8
Cc1ccc2cc(CN(C(=O)c3ccco3)c3ccccc3C)c(=O)[nH]c2c1	10.6
On1onc2c3cc(-c4ccccc4)nc3ccc21	72.8
Cc1ccc(Cn2ccc(=O)c(OCc3c(Cl)cccc3Cl)c2C)cc1	74
Fc1ccc(C(CCCn2nnc(-c3cccnc3)n2)c2ccc(F)cc2)cc1	2.32
Cc1ccc(-c2csc3ncnc(Nc4ccc(N5CCOCC5)cc4)c23)cc1	11.6
Cc1cc2ncn(/N=C/c3cccnc3)c2cc1C	4.14
CCc1ccc(NS(=O)(=O)c2ccc(OC)c(C)c2)cc1	58.3
COc1ccc(Br)cc1/C=C/C(=O)c1ccc(NC(C)=O)cc1	72.8
c1ccc2c(c1)oc1c(N3CCN(Cc4ccc5c(c4)OCO5)CC3)ncnc12	47.2
Cc1ccc(S(=O)(=O)n2c3ccc(Cl)cc3c3nc(C)sc32)cc1	-0.23

Compound	inhibition [%]
Cc1cccc(C2c3[nH]c4ccccc4c3CCN2C(=O)c2noc3c2CCCC3)n1 (configuration not stated)	41.8
CCCS(=O)(=O)c1nnnn1-c1cccc(OC)c1	72.2
COc1ccc(S(=O)(=O)N2CCCCCC2)cc1C(=O)OCc1c(C)noc1C	22.3
CCOc1ccccc1N1CCN(C(=S)NCc2ccc(Cl)cc2)CC1	51.3
COc1ccc(CN(C)C(c2ccccc2)c2nnnn2-c2ccccc2C)c(OC)c1C (configuration not stated)	44.6
CC(C)N(C(=S)Nc1cccc(C(F)(F)F)c1)C(C)c1ccccn1 (configuration not stated)	26
CC12CCC(C(=O)Nc3nc4ccc(Br)cc4s3)(OC1=O)C2(C)C (configuration not stated)	61.4
COC(=O)c1c(NC(=O)c2nc3ccccc3s2)sc2c1CC(C)(C)NC2(C)C	74.2
N=c1c2c(n(Cc3cccc(Cl)c3)c3c1CCC3)CCCC2	56.7
COc1ccc(NC(=O)N2CCCC(c3nc(-c4ccc(C(C)C)cc4)no3)C2)cc1 (configuration not stated)	50.5
CC(C)c1ccccc1NC(=S)NC(C)c1ccccc1 (configuration not stated)	49.7
O=C(N/N=C/c1c[nH]c2ccccc12)c1[nH]c2ccc(Br)cc2c1-c1ccccc1	35.3
FC(F)(F)c1cnc(N2CCC(=NOCc3ccc(Cl)cc3)CC2)c(Cl)c1	8.34
COc1ccccc1NC(=S)NCCC(c1ccccc1)c1ccccc1	49
CCCCCCCCCc1nc2sc3c(c2c(=O)n1NC(=O)c1ccccc1[N+](=O)[O-])CC(C)(C)OC3	30.5
O=C(C1=C[C@@H](C2CCCCC2)C[C@@H](OCc2ccc(CO)cc2)O1)N1CCN(Cc2ccccc2)CC1	16.6
CC(C)c1ccc(OCc2nc(-c3ccccn3)no2)c(Br)c1	1.12
Oc1ccccc1C1CC(c2cccs2)=NC(c2ccc(Cl)cc2)N1 (configuration not stated)	73
O=Nc1c(O)n(Cc2cccc(Cl)c2)c2ccccc12	9.55
CCc1cc(-c2n[nH]c(=S)n2Cc2ccccc2)cs1	33.8
CCOC(=O)N=Nc1c2ccccc2c2nc3no[nH]c3nc12	94.6
CC[n+]1c(/C=C/c2c[nH]c3ccccc23)ccc2cc(C)ccc21	68.6

Compound	inhibition [%]
CN1/C(=C/c2cc[n+](C)c3ccccc23)C=Cc2ccccc21	87.4
CCOc1cccc(-c2nn(-c3ccccc3)cc2/C=C(/C#N)C(=O)NCCCn2ccnc2)c1	-6.04
Cc1cccc2c1N(CCCOc1ccc(C(C)(C)C)cc1)C(=O)C2=O	60.7
Cc1ccc(NC(=S)N(Cc2ccc(Br)cc2)Cc2ccc(C(=O)O)cc2)cc1C	1.05
COc1ccc(C(=NNc2ccccc2C(=O)O)c2ccc(OC)cc2)cc1	-1.37
CCCCCC(=O)NNC(=S)NC(=O)c1ccc([N+](=O)[O-])cc1	47.4
CCC(C)(C)c1ccc(OCCCC[n+]2ccccc2)c(C(C)(C)CC)c1	89.1
CCN(CC)c1ccc(NC(=O)Nc2ccccc2C(F)(F)F)cc1	0.16
CC(C)c1ccc(-n2cccc2/C=C2/C(=N)N3C=CSC3=NC2=O)cc1	71.3
O=C(c1ccc2c(c1)OCO2)N(Cc1cccs1)C1(C(=O)NC2CCCCC2)CCCCC1	-3.29
Clc1ccc(-c2nc3cnccn3c2NC2CCCC2)cc1	62.7
COc1ccc(NC(=S)N(CCc2c(C)[nH]c3ccc(C)cc23)Cc2cccs2)cc1	20.6
N#CC(c1ccc(Cl)cc1)c1ccc2c(C(F)(F)F)cc(C(F)(F)F)nc2n1 (configuration not stated)	84
O=C(CSc1ncn[nH]1)NCc1ccccc1	2.93
CN1CCN(c2cc(-c3ccccc3)nc3cc(-c4ccc(F)cc4)nn23)CC1	80.5
CCn1c(=O)c(C(=O)Nc2nc3ccccc3[nH]2)c(O)c2ccccc21	57.2
COc1ccc(-c2nc(CN3CCCCC3c3nccn3C)c(C)o2)c(C)c1C (configuration not stated)	56.3
Cc1ccc(C(C(=O)NC2CCCC2)N(C(=O)Cc2cccs2)c2ccc(C)c(C)c2)o1 (configuration not stated)	8.87
Cc1sc(NC(=O)CSc2nnnn2C2CCCCC2)c(C#N)c1C	5.31
CCc1ccc(Nc2cnn(-c3nc4ccccc4s3)c(=O)c2Cl)cc1	53.6
COc1ccc(OC)c(-c2c3cc(O)c(=O)cc-3oc3cc(O)c(O)cc23)c1	47.8
C#CCN(C)CC/C=C1\c2ccccc2CSc2ccccc21	21.4

Compound	inhibition [%]
Cc1ccc(NC(=S)N(Cc2ccco2)C(C)c2cccs2)c(Cl)c1 (configuration not stated)	19.6
CSCc1cc(N2CCOCC2)nc(SCc2ccc(Cl)c(Cl)c2)n1	15.1
Cc1ccc2nc(-c3ccccn3)c(NC3CCCC3)n2c1	62.5
COc1ccc(-n2ncc3c(NCc4ccco4)ncnc32)cc1	5.16
CCCCC(=O)NC(=S)Nc1ccccc1N1CCCCC1	13.2
COc1ccc(C(CCNCc2ccc(F)cc2)c2ccc(F)cc2)cc1 (configuration not stated)	37.2
Cc1cc(C)nc(NC(=O)/C=C/c2ccccc2Cl)c1	33
O=C(NC(=S)Nc1ccccc1N1CCCCC1)c1ccccc1	-4.72
CCC1CCCCN1C(=O)c1cc(-c2ccc(Cl)c(Cl)c2)on1 (configuration not stated)	31.6
COc1cccc(Nc2c3c(nc4c(-c5ccccc5)c(C)nn24)CCC3)c1	19.2
Fc1ccc(CNC(=S)Nc2cccc(C(F)(F)F)c2)cc1	30.7
O=C(Oc1ccc2ccccc2c1Br)N1CCCCCC1	43.1
O=Nc1ccc(NOC(=O)c2ccccc2Br)cc1	28.2
Clc1ccc(-c2nnc(-c3ccco3)nc2N2CCCCC2)cc1	61
O=C(Nc1nc(-c2ccccn2)cs1)c1ccc2c(c1)OCCO2	65.1
O=C(/C(=C/O)N=Nc1cccc(C(F)(F)F)c1)c1ccccc1	69.2
CCC1Oc2ccc(C)cc2N(CC(=O)N(Cc2ccc(C)o2)C2CCCC2)C1=O (configuration not stated)	2.3
CCCc1sc(N)nc1-c1ccc(Cl)cc1	57.4
Cc1[nH]c2ccccc2c1/C=N/NC(=O)C1CC1(c1ccccc1)c1ccccc1 (configuration not stated)	14.4
